{"source": "PubChem BioAssay (NCATS)", "note": "Inconclusive means that the source gave no clear call. Such entries were picked first, then a sample of the others. Potencies of inconclusive entries are left out as doubtful fits. Calls of active or inactive are those of the source. Calls follow the shape of the dose curve; as a rule, active = well fitted inhibition curve with a large enough effect; inconclusive = small, poorly fitted or top-dose-only effect; inactive = flat fitted curve, though single readings scatter. Potency is read from the fitted curve at half-maximal effect; tags tell the direction and shape of the fitted curve."}
{"assay": "qHTS for Inhibitors of Plasmodium falciparum (7G8) proliferation (AID 504316); also: nearly all actives have a fitted effect of over 65% in size", "conditions": "P. falciparum 7G8 in erythrocytes, SYBR Green DNA, 72 h; activity change, negative = inhibition: at 6.7 µM (top of the series)", "method_in_brief": "(§1)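 Erythrocytes infected with P. falciparum line (0.3% parasitemia, 2.5% hematocrit final) incubated with compounds 72 h at 37 °C, 5% CO2; SYBR Green lysis buffer added, fluorescence read next day. Normalized to 0.29 uM artemisinin and DMSO.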"}
{"smiles": "COC[C@H]1O[C@H](c2ccccc2)C=C[C@H]1OCc1cccc(Br)c1", "Potency": "inactive"}
{"smiles": "COc1ccc2c(c1)[C@@]1(OCCC=C[C@@H]1C)C(=O)N2Cc1ccc(Br)cc1", "Potency": "inconclusive [inhibitor, single point]"}
{"smiles": "COC(=O)C1=C(C(=O)OC)[C@@H]2N(C)c3ccccc3[C@@]23C[C@@H](CO)N(C(=O)c2cc(C)oc2C)C3=N1", "Potency": "inactive"}
{"smiles": "COCCN1C(=S)NC(c2cccc(F)c2)C(C(=O)OC)=C1C", "note": "(configuration not stated)", "Potency": "inconclusive [inhibitor, full curve, poor fit]"}
{"smiles": "CCC=CCCC(OC(=O)c1ccc(Br)cc1)C1=CCCCC1=O", "note": "(configuration not stated)", "Potency": "inactive"}
{"smiles": "CC1(OC(=O)CCc2ccccc2)C(=O)C=C2C=C(c3ccc(C#N)cc3)N(C3CCCC3)C=C2C1=O", "note": "(configuration not stated)", "Potency": "inconclusive [inhibitor, partial curve, poor fit]"}
{"smiles": "COc1ccc2c(c1)C(NC(=O)C(F)(F)F)CC21CCCCC1", "note": "(configuration not stated)", "Potency": "inactive"}
{"smiles": "CCN1C(=O)N[C@@H](CCc2ccccc2)C(C(=O)OC)=C1C", "Potency": "inactive"}
{"smiles": "COc1ccc2c(c1)C(=O)[C@H](OC(=O)Nc1cc(OC)c(OC)c(OC)c1)[C@@H](c1ccc(OC)c(Br)c1)O2", "Potency": "inconclusive [inhibitor, single point]"}
{"smiles": "CCCC[C@]12Cc3cc(C#N)ccc3[C@H](O1)c1c(cc(C)n(-c3ccccc3)c1=O)O2", "Potency": "inconclusive [inhibitor, single point]"}
{"smiles": "O=C(C=Cc1ccccc1)c1ccccc1O", "Potency": "inactive"}
{"smiles": "COC(=O)c1nnc(C(=O)NCc2ccccc2)c2[nH]c3ccccc3c12", "Potency": "inactive"}
{"smiles": "C#CCN1C(=O)[C@]2(OCCC=C[C@H]2C)c2ccccc21", "Potency": "inactive"}
{"smiles": "CCCCC1=CC2=C(c3ccco3)C(=O)C(C)(OC(=O)c3ccc(OC)cc3)C(=O)C2=CN1C(CO)CO", "note": "(configuration not stated)", "Potency": "inactive"}
{"smiles": "CCCCCCCc1cc2ccccc2c2c(C(=O)OC)c(C(=O)OC)c(C(=O)OC)n12", "Potency": "inconclusive [inhibitor, single point]"}
{"smiles": "COCCN1C(=O)NC(c2ccc(Br)cc2)C(C(=O)OC)=C1C", "note": "(configuration not stated)", "Potency": "inactive"}
{"smiles": "C[C@@H]1CC[C@H]2C(=O)N(Cc3cccc([N+](=O)[O-])c3)C[C@H](O)CN2[C@@H]1c1cccc(Br)c1", "Potency": "inconclusive [inhibitor, partial curve, poor fit]"}
{"assay": "qHTS for Inhibitors of Plasmodium falciparum (HB3) proliferation (AID 504318); also: nearly all actives have a fitted effect of over 60% in size", "conditions": "P. falciparum HB3 in erythrocytes, SYBR Green DNA, 72 h; activity change, negative = inhibition: at 7.21 µM (top of the series)", "method_in_brief": "as §1"}
{"smiles": "CC(C)CON=C1C[C@@H](O)[C@@H](O)[C@@H]2[C@H]3C(=O)N(Cc4ccc5c(c4)OCO5)C(=O)[C@@H]3CC[C@@H]12", "Potency": "inconclusive [inhibitor, single point]"}
{"smiles": "C[C@H]1[C@@H](C(=O)N2CCCC2)CC(=O)C(=NOCc2ccccc2)C[C@H]1c1ccccc1", "Potency": "inconclusive [inhibitor, single point]"}
{"smiles": "COc1ccc(-c2nc(-c3ccccc3)oc2Nc2ccc3ccccc3c2)cc1", "Potency": "inactive"}
{"smiles": "CCOC(=O)CCN1C(=O)[C@@H]2[C@H]3[C@H](O)[C@H](O)CC(=NNC(=O)OCc4ccc(OC)cc4)[C@@H]3CC[C@H]2C1=O", "Potency": "inconclusive [inhibitor, partial curve, poor fit]"}
{"smiles": "CCCCCC1=CC2=C(C(=O)OC)C(c3ccccc3)NC(=O)N2CC1", "note": "(configuration not stated)", "Potency": "inconclusive [inhibitor, partial curve]"}
{"smiles": "CCCCS(=O)(=O)N1C2=NC(C(=O)OC)=C(C(=O)OC)[C@@H]3N(C)c4ccccc4[C@]23C[C@H]1C(=O)OC", "Potency": "inconclusive [inhibitor, single point]"}
{"smiles": "C=CC[C@@]1(c2ccc(OC)cc2)Oc2ccccc2C2=NCCN=C21", "Potency": "inconclusive [inhibitor, single point]"}
{"smiles": "COc1ccc(O[C@H]2C=C[C@@H](c3ccccc3)O[C@H]2COC(=O)CCC(C)=NO[C@H](C)c2cn([C@@H]3COC[C@@H]3O)nn2)cc1", "Potency": "inconclusive [inhibitor, single point]"}
{"smiles": "COc1ccc2c(c1)C(=O)[C@@H](OC(=O)NCCc1ccc(OC)c(OC)c1)[C@H](c1ccc(OC)c(Br)c1)O2", "Potency": "inconclusive [inhibitor, partial curve]"}
{"smiles": "COC(=O)C1=C(C)C(=O)[C@]2(O)c3ccccc3N(C)[C@]12C", "Potency": "inactive"}
{"smiles": "COc1ccc(-c2nc3c(c4c2C[C@H](c2ccccc2)OC4)CN(C(=O)NCc2ccco2)CC3)c(C)c1", "Potency": "inconclusive [inhibitor, partial curve, poor fit]"}
{"smiles": "CC(C)OC(=O)[C@@H]1CC[C@H](C)[C@@H](CCC[C@@H]2CC=C[C@H](CC#N)O2)O1", "Potency": "inactive"}
{"smiles": "CC(=O)O[C@H](C(=O)O[C@@H]1C[C@@H](CCC[C@H]2O[C@H](C(=O)OC(C)C)CC[C@@H]2C)O[C@@H](CC#N)C1)c1ccccc1", "Potency": "inconclusive [inhibitor, single point]"}
{"smiles": "CCCCCCCc1cc2ccccc2c2c(C=O)c(CCCC)c(C(=O)OC)n12", "Potency": "inconclusive [inhibitor, single point]"}
{"smiles": "C=CCN1c2ccccc2[C@]23CCC(=O)N(CCCOC(C)C)C2=NC(C(=O)OC)=C(C(=O)OC)[C@H]13", "Potency": "inconclusive [inhibitor, partial curve]"}
{"smiles": "O[C@H](CC#CCOc1ccccc1)COCc1ccccc1", "Potency": "inconclusive [inhibitor, full curve, poor fit]"}
{"smiles": "COc1cc(CCN2C(=O)NC(c3ccccc3)C(C(C)=O)=C2C)cc(OC)c1OC", "note": "(configuration not stated)", "Potency": "inconclusive [inhibitor, single point]"}
{"smiles": "CCN1C(N(C)CCOC)=NC(c2cccc(F)c2)C(C(=O)OC)=C1C", "note": "(configuration not stated)", "Potency": "inactive"}
{"smiles": "CCCCC1=CC2=C(c3ccco3)C(=O)C(C)(OC(=O)c3ccc(OC)cc3)C(=O)C2=CN1CCCOC(C)C", "note": "(configuration not stated)", "Potency": "inactive"}
{"smiles": "COC(=O)CCCC1=CC2=CC(=O)C(C)(OC(=O)c3cccs3)C(=O)C2=CN1C1CCCCC1", "note": "(configuration not stated)", "Potency": "inconclusive [inhibitor, single point] and inactive"}
{"smiles": "CC(CCC(=O)OC[C@H]1O[C@H](C#Cc2ccccc2)C=C[C@H]1Oc1ccc(C)cc1)=NO[C@H](C)c1cn([C@H](CO)Cc2ccccc2)nn1", "Potency": "inconclusive [inhibitor, partial curve, poor fit]"}
{"smiles": "C=C(Br)CO[C@@H]1C=C[C@@H](c2ccccc2)O[C@@H]1COC", "Potency": "inactive"}
{"smiles": "CCc1cc2c(nc1CC)CCN(CCC(C)=NO[C@@H]1O[C@H](COC(C)=O)[C@@H](OC(C)=O)[C@H](OC(C)=O)[C@@H]1OC(C)=O)C2", "Potency": "inconclusive [inhibitor, partial curve]"}
{"smiles": "COC[C@H]1O[C@H](c2ccccc2)C=C[C@H]1OCc1cccc(Br)c1", "Potency": "inconclusive [activator, full curve, poor fit]"}
{"smiles": "COc1ccc2c(c1)[C@@]1(OCCC=C[C@@H]1C)C(=O)N2Cc1ccc(Br)cc1", "Potency": "inactive"}
{"smiles": "COC(=O)C1=C(C(=O)OC)[C@@H]2N(C)c3ccccc3[C@@]23C[C@@H](CO)N(C(=O)c2cc(C)oc2C)C3=N1", "Potency": "inactive"}
{"smiles": "COCCN1C(=S)NC(c2cccc(F)c2)C(C(=O)OC)=C1C", "note": "(configuration not stated)", "Potency": "inactive"}
{"smiles": "CCC=CCCC(OC(=O)c1ccc(Br)cc1)C1=CCCCC1=O", "note": "(configuration not stated)", "Potency": "inactive"}
{"smiles": "CC1(OC(=O)CCc2ccccc2)C(=O)C=C2C=C(c3ccc(C#N)cc3)N(C3CCCC3)C=C2C1=O", "note": "(configuration not stated)", "Potency": "inconclusive [inhibitor, partial curve]"}
{"smiles": "COc1ccc2c(c1)C(NC(=O)C(F)(F)F)CC21CCCCC1", "note": "(configuration not stated)", "Potency": "inactive"}
{"smiles": "CCN1C(=O)N[C@@H](CCc2ccccc2)C(C(=O)OC)=C1C", "Potency": "inactive"}
{"smiles": "COc1ccc2c(c1)C(=O)[C@H](OC(=O)Nc1cc(OC)c(OC)c(OC)c1)[C@@H](c1ccc(OC)c(Br)c1)O2", "Potency": "inactive"}
{"smiles": "CCCC[C@]12Cc3cc(C#N)ccc3[C@H](O1)c1c(cc(C)n(-c3ccccc3)c1=O)O2", "Potency": "inconclusive [inhibitor, partial curve]"}
{"smiles": "O=C(C=Cc1ccccc1)c1ccccc1O", "Potency": "inactive"}
{"smiles": "COC(=O)c1nnc(C(=O)NCc2ccccc2)c2[nH]c3ccccc3c12", "Potency": "inactive"}
{"smiles": "C#CCN1C(=O)[C@]2(OCCC=C[C@H]2C)c2ccccc21", "Potency": "inactive"}
{"smiles": "CCCCC1=CC2=C(c3ccco3)C(=O)C(C)(OC(=O)c3ccc(OC)cc3)C(=O)C2=CN1C(CO)CO", "note": "(configuration not stated)", "Potency": "inactive"}
{"smiles": "CCCCCCCc1cc2ccccc2c2c(C(=O)OC)c(C(=O)OC)c(C(=O)OC)n12", "Potency": "inactive"}
{"smiles": "COCCN1C(=O)NC(c2ccc(Br)cc2)C(C(=O)OC)=C1C", "note": "(configuration not stated)", "Potency": "inconclusive [inhibitor, single point]"}
{"smiles": "C[C@@H]1CC[C@H]2C(=O)N(Cc3cccc([N+](=O)[O-])c3)C[C@H](O)CN2[C@@H]1c1cccc(Br)c1", "Potency": "inconclusive [inhibitor, single point]"}
